For assay [1], the target named is T1, Hu_CRD1-CRD2 (human, UniProt Q07011 24-86, limits assumed).
T1 construct: also called two CRD units (CRD1-CRD2) of human CD137
The assay can be described thus: flow cytometry, yeast display [Cont.].

The target in assay [2] is T2, Hu_CRD2-CRD3 (human, UniProt Q07011 46-118, limits assumed).
T2 construct: also called two CRD units (CRD2-CRD3) of human CD137
The assay can be described thus: flow cytometry, yeast display [Cont.]. (In general: A flow cytometer gives signals particle by particle.)

Assay [3] deals with T3, Hu_CRD4 (human, UniProt Q07011 119-159, limits assumed).
T3 construct: also called human CD137 CRD4
T3 chain: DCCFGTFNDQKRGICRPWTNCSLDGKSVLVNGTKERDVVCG
Description: flow cytometry, yeast display [Cont.].

Assay [4] deals with T4, Hu_CRD3 (human, limits assumed).
T4 construct: also called human CD137 CRD3
T4 chain: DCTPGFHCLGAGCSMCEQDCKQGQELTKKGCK
Description: flow cytometry, yeast display [Cont.].

Assay [5] concerns the target T5, Hu_P32A (human, UniProt Q07011 18-255).
T5 construct: On HEK293F; also called human CD137 P32A
The assay can be described thus: flow cytometry, HEK293F.

The target in assay [6] is T6, Hu_F53A (human, UniProt Q07011 18-255).
T6 construct: On HEK293F; also called human CD137 F53A
Description: flow cytometry, HEK293F.

For assay [7], the target named is T7, Hu_P49A (human, UniProt Q07011 18-255).
T7 construct: On HEK293F; also called human CD137 P49A
Description: flow cytometry, HEK293F.

Assay [8] addresses T8, Hu_N83A (human, UniProt Q07011 18-255).
T8 construct: On HEK293F; also called human CD137 N83A
Description: flow cytometry, HEK293F.

The target of assay [9] is T9, Hu_F36A (human, UniProt Q07011 18-255).
T9 construct: On HEK293F; also called human CD137 F36A
Description: flow cytometry, HEK293F.

For assay [10], the target named is T10, Hu_F72A (human, UniProt Q07011 18-255).
T10 construct: On HEK293F; also called human CD137 F72A
The assay can be described thus: flow cytometry, HEK293F.

Assay [11] deals with T11, Hu_F92A (human, UniProt Q07011 18-255).
T11 construct: On HEK293F; also called human CD137 F92A
The assay can be described thus: flow cytometry, HEK293F.

The target of assay [12] is T12, Hu_T35A (human, UniProt Q07011 18-255).
T12 construct: On HEK293F; also called human CD137 T35A
The assay can be described thus: flow cytometry, HEK293F.

Assay [13] deals with T13, Hu_CRD2-CRD3-CRD4 (human, UniProt Q07011 46-159, limits assumed).
T13 construct: also called three CRD units (CRD2-CRD3-CRD4) of human CD137
Description: flow cytometry, yeast display [Cont.].

Assay [14] has as its target T14, Hu_CRD3-CRD4 (human, UniProt Q07011 87-159, limits assumed).
T14 construct: also called two CRD units (CRD3-CRD4) of human CD137
Description: flow cytometry, yeast display [Cont.].

Assay [15] has as its target T15, Hu_CRD1-CRD2-CRD3 (human, UniProt Q07011 24-118, limits assumed).
T15 construct: also called three CRD units (CRD1-CRD2-CRD3) of human CD137
Description: flow cytometry, yeast display [Cont.].

The record followed here is US20190055314A1 (ADAGENE, published 2019).

B1: human CD137 ligand (ligand)
chain: not shown
modifications: biotinylated in Example 6
notes: also called HuCD137L; biotinylated CD137L
Take B1: the “% in upper right quadrant” value in [1] is 0.22%; in assay [2], 0.23%; in [3], 0.12%; in [4] it was 0.27%; in [13] it was 0.39%; in assay [14], 0.27%. For the same molecule, the “% in upper right quadrant” value in [15] turned out to be 27.3%. Further, the Mean was 21900 in assay [1]; 11500 in [2]; 9510 in assay [3]; 14200 in [4]; 10500 in [13]; 23700 in [14]. Further, the Mean in [15] came out at 3680. Further, the binding result in assay [5], in [6], in assay [7], in [8], in assay [9] and in assay [10] was “no binding” each time. Moreover, the binding result in [11] and in [12] was “no binding” each time.
